Test results reported in article PMC11584402.
These are yes or no findings as the source states them, for the method shown. For some of these results: In cells and extracts the contact can be indirect. Some results given as binding are weak or reduced against the parent protein; the word gives no strength. Where a sequence is shown, tags or fusion partners need not be part of it.

By UniProt entry, the sequences of proteins in these tests, tags left out.
UniProt Q07820: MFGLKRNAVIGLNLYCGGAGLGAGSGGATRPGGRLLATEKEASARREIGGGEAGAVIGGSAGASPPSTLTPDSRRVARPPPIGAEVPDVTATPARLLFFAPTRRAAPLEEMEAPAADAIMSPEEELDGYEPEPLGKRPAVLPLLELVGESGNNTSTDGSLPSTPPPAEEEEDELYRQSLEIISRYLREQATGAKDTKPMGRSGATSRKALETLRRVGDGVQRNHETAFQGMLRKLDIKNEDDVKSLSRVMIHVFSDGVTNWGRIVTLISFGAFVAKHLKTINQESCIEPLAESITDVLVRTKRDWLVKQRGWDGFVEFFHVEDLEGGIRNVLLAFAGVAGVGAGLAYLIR

Key:
[1] = target: MCL1-mCherry (human) (UniProt Q07820); test: probe binding assay (PBA), single-molecule fluorescence counting; mCherry-labelled anti-apoptotic protein from HEK293T extract immobilised on the surface; eGFP-labelled probe in crude HEK293T extract added at a range of concentrations, 10 min; fractional occupancy fitted for Kd
[2] = target: MCL1-mCherry (human) (UniProt Q07820); test: probe binding assay (PBA; single-molecule pull-down with TIRF counting); mCherry-labelled anti-apoptotic protein immobilised from HEK293T crude extract on a PEG surface (biotinylated anti-RFP antibody); crude HEK293T extract with the eGFP-labelled probe diluted to a range of eGFP concentrations, 10 min; fractional occupancy of surface baits at equilibrium fitted with n fixed to 1 or with the generalized Hill equation (n fitted)
[3] = target: BCL2-mCherry (human), P10415; test: probe binding assay (PBA), single-molecule fluorescence counting; mCherry-labelled anti-apoptotic protein from HEK293T extract immobilised on the surface; eGFP-labelled probe in crude HEK293T extract added at a range of concentrations, 10 min; fractional occupancy fitted for Kd; details: remark: other sources report otherwise
[4] = target: BCL2-mCherry (human), P10415; test: probe binding assay (PBA; single-molecule pull-down with TIRF counting); mCherry-labelled anti-apoptotic protein immobilised from HEK293T crude extract on a PEG surface (biotinylated anti-RFP antibody); crude HEK293T extract with the eGFP-labelled probe diluted to a range of eGFP concentrations, 10 min; fractional occupancy of surface baits at equilibrium fitted with n fixed to 1 or with the generalized Hill …; details: remark: other sources report otherwise
[5] = target: BCL2-like protein 4 (BAX), endogenous (human (endogenous in HL60)), Q07812; test: co-IP; SMPC immunoassay of endogenous complexes: bait immobilised by a monoclonal IP antibody on a PEG surface from 2 mg ml^-1 crude cell extract (GDN lysis, 2 h), partner detected by a monoclonal antibody and a Cy3 secondary antibody; single-molecule counting; cells untreated or treated with staurosporine, ABT-199 or AZD-5991; details: remark: other sources report otherwise
[6] = target: B-cell-lymphoma-2 (BCL2), endogenous (human (endogenous in HL60)), P10415; test: probe binding assay (PBA), single-molecule fluorescence counting; endogenous anti-apoptotic protein immobilised by its IP antibody from 1 mg ml^-1 crude extract of cancer cell lines or primary AML cells (GDN lysis, 1 h); eGFP-labelled probe in crude HEK293T extract added, 10 min; details: remark: other sources report otherwise

B1: BAD-eGFP (protein, UniProt Q92934 1-168)
chain: MFQIPEFEPSEQEDSSSAERGLGPSPAGDGPSGSGKHHRQAPGLLWDASHQQEQPTSSSHHGGAGAVEIRSRHSSYPAGTEDDEGMGEEPSPFRGRSRSAPPNLWAAQRYGRELRRMSDEFVDSFKKGLPRPKSAGTATQMRQSSSWTRVFQSWWDRNLGRGSSAPSQ
With B1 the binding [1] was “no binding” and the binding [2] was “no binding”.

B2: NOXA-eGFP, Q13794 1-54 (natural protein)
chain: MPGKKARKNAQPSPARAPAELEVECATQLRRFGDKLNFRQKLLNLISKLFCSGT
In the case of B2, the binding [3] is reported as “no binding” and the binding [4] is reported as “no binding”.

B3: BCL2 homologous antagonist/killer (BAK), endogenous, Q16611 1-211 (protein)
chain: MASGQGPGPPRQECGEPALPSASEEQVAQDTEEVFRSYVFYRHQQEQEAEGVAAPADPEMVTLPLQPSSTMGQVGRQLAIIGDDINRRYDSEFQTMLQHLQPTAENAYEYFTKIATSLFESGINWGRVVALLGFGYRLALHVYQHGLTGFLGQVTRFVVDFMLHHCIARWIAQRGGWVAALNLGNGPILNVLVVLGVVLLGQFVVRRFFKS
For B3, the binding [5] was “binds”.

B4: BAD-eGFP, Q92934 1-168 (natural protein)
chain: B1 chain
For B4, the binding [3] was “binds” and the binding [6] was “binds”.
